Source: publication PMC9911399, “Two distinct binding modes provide the RNA-binding protein RbFox with extraordinary sequence specificity”
Changes are numbered by the printed parent chain; changes in the protein carry UniProt numbers. Some of the results follow.

T1: RBFOX1 RRM RbFoxmut (Fox-RRM*) (Homo sapiens, UniProt Q9NWB1 109-208, R118D;E147R;N151S;E152T)
T1 sequence: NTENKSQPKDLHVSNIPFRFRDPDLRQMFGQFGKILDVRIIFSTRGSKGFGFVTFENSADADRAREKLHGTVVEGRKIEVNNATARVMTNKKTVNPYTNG

B1: CCGAAUC (DNA:RNA)
RNA: GGGAGACCGGAAUUCAGAUUGUCCCCGAAUCUUAAAUCCCGUCGUAGCCACCA
DNA 1: CAATCTGAATTCCGGTCTCCC
DNA 2: TGGTGGCTACGACGGGATT
B2: GUACAUU (DNA:RNA)
RNA: B1 RNA with C25G, C26U, G27A, A28C, C31U
DNA 1: CAATCTGAATTCCGGTCTCCC
DNA 2: TGGTGGCTACGACGGGATT
B3: UGACUCC (DNA:RNA)
RNA: B1 RNA with C25U, C26G, G27A, A28C, A29U, U30C
DNA 1: CAATCTGAATTCCGGTCTCCC
DNA 2: TGGTGGCTACGACGGGATT
B4: CUCUAAC (DNA:RNA)
RNA: B1 RNA with C26U, G27C, A28U, U30A
DNA 1: CAATCTGAATTCCGGTCTCCC
DNA 2: TGGTGGCTACGACGGGATT
B5: UGCGUUA (DNA:RNA)
RNA: B1 RNA with C25U, C26G, G27C, A28G, A29U, C31A
DNA 1: CAATCTGAATTCCGGTCTCCC
DNA 2: TGGTGGCTACGACGGGATT
B6: UACCCGU (DNA:RNA)
RNA: GGGAGACCGGAAUUCAGAUUGUCCUACCCGUUUAAAUCCCGUCGUAGCCACCA
DNA 1: CAATCTGAATTCCGGTCTCCC
DNA 2: TGGTGGCTACGACGGGATT
B7: UUUCACG (DNA:RNA)
RNA: B6 RNA with A26U, C27U, C29A, G30C, U31G
DNA 1: CAATCTGAATTCCGGTCTCCC
DNA 2: TGGTGGCTACGACGGGATT
B8: GGUUAUC (DNA:RNA)
RNA: B1 RNA with C25G, C26G, G27U, A28U
DNA 1: CAATCTGAATTCCGGTCTCCC
DNA 2: TGGTGGCTACGACGGGATT
B9: CCCAGAG (DNA:RNA)
RNA: B1 RNA with G27C, A29G, U30A, C31G
DNA 1: CAATCTGAATTCCGGTCTCCC
DNA 2: TGGTGGCTACGACGGGATT
B10: AUCUAGU (DNA:RNA)
RNA: B6 RNA with U25A, A26U, C28U, C29A
DNA 1: CAATCTGAATTCCGGTCTCCC
DNA 2: TGGTGGCTACGACGGGATT
B11: AUAUUGC (DNA:RNA)
RNA: B1 RNA with C25A, C26U, G27A, A28U, A29U, U30G
DNA 1: CAATCTGAATTCCGGTCTCCC
DNA 2: TGGTGGCTACGACGGGATT
B12: CUUAUCG (DNA:RNA)
RNA: B1 RNA with C26U, G27U, A29U, U30C, C31G
DNA 1: CAATCTGAATTCCGGTCTCCC
DNA 2: TGGTGGCTACGACGGGATT
B13: GAUCUAA (DNA:RNA)
RNA: B6 RNA with U25G, C27U, C29U, G30A, U31A
DNA 1: CAATCTGAATTCCGGTCTCCC
DNA 2: TGGTGGCTACGACGGGATT
B14: GGUGACU (DNA:RNA)
RNA: B1 RNA with C25G, C26G, G27U, A28G, U30C, C31U
DNA 1: CAATCTGAATTCCGGTCTCCC
DNA 2: TGGTGGCTACGACGGGATT
B15: AGAAAGA (DNA:RNA)
RNA: B1 RNA with C25A, C26G, G27A, U30G, C31A
DNA 1: CAATCTGAATTCCGGTCTCCC
DNA 2: TGGTGGCTACGACGGGATT
B16: UUAUUUU (DNA:RNA)
RNA: B6 RNA with A26U, C27A, C28U, C29U, G30U
DNA 1: CAATCTGAATTCCGGTCTCCC
DNA 2: TGGTGGCTACGACGGGATT
B17: UGCGAUG (DNA:RNA)
RNA: B1 RNA with C25U, C26G, G27C, A28G, C31G
DNA 1: CAATCTGAATTCCGGTCTCCC
DNA 2: TGGTGGCTACGACGGGATT
B18: UUACUCU (DNA:RNA)
RNA: B6 RNA with A26U, C27A, C29U, G30C
DNA 1: CAATCTGAATTCCGGTCTCCC
DNA 2: TGGTGGCTACGACGGGATT
B19: UGAAGUG (DNA:RNA)
RNA: B1 RNA with C25U, C26G, G27A, A29G, C31G
DNA 1: CAATCTGAATTCCGGTCTCCC
DNA 2: TGGTGGCTACGACGGGATT
B20: AACCUCA (DNA:RNA)
RNA: B6 RNA with U25A, C29U, G30C, U31A
DNA 1: CAATCTGAATTCCGGTCTCCC
DNA 2: TGGTGGCTACGACGGGATT
B21: GGACGAC (DNA:RNA)
RNA: B1 RNA with C25G, C26G, G27A, A28C, A29G, U30A
DNA 1: CAATCTGAATTCCGGTCTCCC
DNA 2: TGGTGGCTACGACGGGATT
B22: AACGGUG (DNA:RNA)
RNA: B6 RNA with U25A, C28G, C29G, G30U, U31G
DNA 1: CAATCTGAATTCCGGTCTCCC
DNA 2: TGGTGGCTACGACGGGATT
B23: UGAAUCU (DNA:RNA)
RNA: B6 RNA with A26G, C27A, C28A, C29U, G30C
DNA 1: CAATCTGAATTCCGGTCTCCC
DNA 2: TGGTGGCTACGACGGGATT
B24: UUCGUAG (DNA:RNA)
RNA: B6 RNA with A26U, C28G, C29U, G30A, U31G
DNA 1: CAATCTGAATTCCGGTCTCCC
DNA 2: TGGTGGCTACGACGGGATT
B25: GGAGCCG (DNA:RNA)
RNA: B6 RNA with U25G, A26G, C27A, C28G, G30C, U31G
DNA 1: CAATCTGAATTCCGGTCTCCC
DNA 2: TGGTGGCTACGACGGGATT
B26: CAAGAGA (DNA:RNA)
RNA: B1 RNA with C26A, G27A, A28G, U30G, C31A
DNA 1: CAATCTGAATTCCGGTCTCCC
DNA 2: TGGTGGCTACGACGGGATT
B27: GCUACGU (DNA:RNA)
RNA: B6 RNA with U25G, A26C, C27U, C28A
DNA 1: CAATCTGAATTCCGGTCTCCC
DNA 2: TGGTGGCTACGACGGGATT
B28: AUUCACU (DNA:RNA)
RNA: B6 RNA with U25A, A26U, C27U, C29A, G30C
DNA 1: CAATCTGAATTCCGGTCTCCC
DNA 2: TGGTGGCTACGACGGGATT
B29: CAGUAUA (DNA:RNA)
RNA: B1 RNA with C26A, A28U, C31A
DNA 1: CAATCTGAATTCCGGTCTCCC
DNA 2: TGGTGGCTACGACGGGATT
B30: CAUCGAC (DNA:RNA)
RNA: B1 RNA with C26A, G27U, A28C, A29G, U30A
DNA 1: CAATCTGAATTCCGGTCTCCC
DNA 2: TGGTGGCTACGACGGGATT
B31: UCAUUUU (DNA:RNA)
RNA: B1 RNA with C25U, G27A, A28U, A29U, C31U
DNA 1: CAATCTGAATTCCGGTCTCCC
DNA 2: TGGTGGCTACGACGGGATT

Biological target: T1, RBFOX1 RRM RbFoxmut (Fox-RRM*)
Test: EMSA; HiTS-Eq, 1 nM pool, 10 min; buffer printed only for the single-RNA assays: 10 mM Tris pH 7.5, 150 mM NaCl, 3.4 mM EDTA, 0.001% NP-40, 30 C
Settings: tags: His6 N-terminal (pET28a); label: 5' 32P
Method in brief: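 These values rest on relative association constants, computed from read-count changes of each RNA species versus the control reaction and normalised to the cognate motif. Reads came from free RNA recovered by 8% native PAGE after purified RbFox RRM (wild type or mutant) at increasing concentrations was equilibrated for 10 min in 50 µL with 1 nM of a 5′-radiolabelled pool with 7 randomized nucleotides and DNA-annealed flanks.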

| Binder | binding signal |
| --- | --- |
| B1 | 0.173 KA relative to UGCAUGU |
| B2 | 0.0921 KA relative to UGCAUGU |
| B3 | 0.0842 KA relative to UGCAUGU |
| B4 | 0.0722 KA relative to UGCAUGU |
| B5 | 0.154 KA relative to UGCAUGU |
| B6 | 0.094 KA relative to UGCAUGU |
| B7 | 0.132 KA relative to UGCAUGU |
| B8 | 0.162 KA relative to UGCAUGU |
| B9 | 0.105 KA relative to UGCAUGU |
| B10 | 0.14 KA relative to UGCAUGU |
| B11 | 0.133 KA relative to UGCAUGU |
| B12 | 0.078 KA relative to UGCAUGU |
| B13 | 0.0764 KA relative to UGCAUGU |
| B14 | 0.0583 KA relative to UGCAUGU |
| B15 | 0.0869 KA relative to UGCAUGU |
| B16 | 0.088 KA relative to UGCAUGU |

| Binder | binding signal |
| --- | --- |
| B17 | 0.493 KA relative to UGCAUGU |
| B18 | 0.0472 KA relative to UGCAUGU |
| B19 | 0.152 KA relative to UGCAUGU |
| B20 | 0.104 KA relative to UGCAUGU |
| B21 | 0.0798 KA relative to UGCAUGU |
| B22 | 0.0984 KA relative to UGCAUGU |
| B23 | 0.244 KA relative to UGCAUGU |
| B24 | 0.15 KA relative to UGCAUGU |
| B25 | 0.0931 KA relative to UGCAUGU |
| B26 | 0.0927 KA relative to UGCAUGU |
| B27 | 0.123 KA relative to UGCAUGU |
| B28 | 0.0909 KA relative to UGCAUGU |
| B29 | 0.154 KA relative to UGCAUGU |
| B30 | 0.0973 KA relative to UGCAUGU |
| B31 | 0.109 KA relative to UGCAUGU |
